Measured values published in the supplement of paper PMC10441789.
This is one part of the list. Antibody binding of pooled human sera (four to six donors per pool; dilution not stated) to peptides of the Trypanosoma cruzi antigen TSSA on microarrays. Quantile-normalised fluorescence in arbitrary units, mean of duplicate arrays; higher = more binding. No active / inactive call. The uninfected pools are read here as the healthy donors of the same country. The strongest signals lie near the top of the scale (about 60,000).

What was measured:
Assay in all cases: antibody binding signal (normalised fluorescence) (arbitrary fluorescence units); higher = stronger serum antibody binding to peptide
[1] = system: pooled sera of chronic Chagas disease patients, Argentina
Procedure: (§1)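 Microarray of 15-residue peptides over residues 30-55 of Trypanosoma cruzi TSSAII, each with 1 to 10 substitutions at naturally variable positions, probed with one serum pool per country.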

[2] = system: pooled sera of chronic Chagas disease patients, Bolivia
Procedure: as §1

[3] = system: pooled sera of chronic Chagas disease patients, Brazil
Procedure: as §1

[4] = system: pooled sera of chronic Chagas disease patients, Colombia
Procedure: as §1

[5] = system: pooled sera of chronic Chagas disease patients, Mexico
Procedure: as §1

[6] = system: pooled sera of chronic Chagas disease patients, USA
Procedure: as §1

[7] = system: pooled sera of uninfected people, Argentina
Procedure: as §1

[8] = system: pooled sera of uninfected people, Bolivia
Procedure: as §1

[9] = system: pooled sera of uninfected people, Brazil
Procedure: as §1

[10] = system: pooled sera of uninfected people, Mexico
Procedure: as §1

[11] = system: pooled sera of uninfected people, USA
Procedure: as §1

Row | Sequence | antibody binding signal [1] | antibody binding signal [2] | antibody binding signal [3] | antibody binding signal [4] | antibody binding signal [5] | antibody binding signal [6] | antibody binding signal [7] | antibody binding signal [8] | antibody binding signal [9] | antibody binding signal [10] | antibody binding signal [11]
1 | GKEKKPATGGAPSPS | 6600 | 732 | 1130 | 3520 | 3940 | 4000 | 221 | 340 | 96.1 | 86.6 | 289
2 | TSSTPPSGTEKKTAT | 33300 | 3290 | 30100 | 454 | 12600 | 3910 | 869 | 291 | 139 | 98.8 | 140
3 | GKDKKTAAGGAPSQS | 258 | 244 | 183 | 2530 | 393 | 381 | 128 | 118 | 109 | 124 | 110
4 | SGTDKKPATGGTPSP | 1460 | 2500 | 26200 | 11900 | 2240 | 1170 | 289 | 543 | 764 | 1770 | 246
5 | GKEKKTATGGTPSQP | 1650 | 257 | 370 | 2830 | 2450 | 2870 | 292 | 83.5 | 132 | 288 | 85.8
6 | SGTDKKTATGEAPSQ | 11700 | 25000 | 20100 | 1250 | 459 | 19600 | 200 | 115 | 548 | 224 | 110
7 | TENKAATGEAPSQPG | 31400 | 42400 | 45300 | 208 | 187 | 29400 | 268 | 141 | 201 | 95.5 | 191
8 | KKTAAGGAPSQSGAS | 194 | 255 | 163 | 3250 | 618 | 251 | 216 | 103 | 119 | 107 | 201
9 | TDKKPATGEAPSQPG | 41300 | 47700 | 48000 | 363 | 281 | 38200 | 821 | 631 | 327 | 234 | 141
10 | TPPSGKENKTATGGT | 13900 | 1340 | 3060 | 925 | 2790 | 3340 | 2110 | 1300 | 393 | 317 | 243
11 | TENKAATGETPSQPG | 31700 | 5570 | 41300 | 221 | 149 | 13200 | 120 | 402 | 258 | 131 | 316
12 | KDKKTATGETPSQSG | 342 | 279 | 832 | 317 | 309 | 4520 | 163 | 106 | 113 | 79.2 | 112
13 | SGTDKKPATGETPSQ | 32800 | 26300 | 34600 | 4080 | 394 | 23200 | 245 | 418 | 195 | 3380 | 181
14 | KEKKTAAGGAPSQPG | 192 | 540 | 725 | 2820 | 220 | 260 | 115 | 101 | 103 | 102 | 125
15 | STPPSGKDKKAAAGG | 21700 | 1350 | 2080 | 874 | 42900 | 1680 | 204 | 465 | 115 | 97.7 | 109
16 | KDKKTATGGAPSQPG | 553 | 244 | 469 | 664 | 494 | 283 | 240 | 98.9 | 102 | 96.5 | 111
17 | KENKPATGETPSPPG | 35400 | 28900 | 35300 | 281 | 720 | 25200 | 275 | 480 | 314 | 1470 | 1360
18 | TPPSGTEKKPATGGT | 37900 | 5750 | 39100 | 535 | 31400 | 6330 | 1180 | 847 | 1580 | 348 | 1090
19 | EKKPAAGEAPSQPGA | 7440 | 19800 | 40200 | 475 | 315 | 13800 | 148 | 687 | 263 | 351 | 800
20 | KENKAAAGEAPSPPG | 353 | 203 | 18700 | 163 | 139 | 10100 | 155 | 81.2 | 88 | 84.7 | 88.3
21 | STPPSGTDNKAAAGG | 36000 | 48900 | 51100 | 1530 | 13600 | 33700 | 1220 | 706 | 1880 | 453 | 473
22 | TDNKTAAGGTPSPPG | 1180 | 221 | 237 | 3980 | 290 | 1270 | 203 | 347 | 933 | 1200 | 155
23 | GKDNKPAAGETPSQS | 1800 | 433 | 18500 | 2060 | 3240 | 3650 | 237 | 868 | 151 | 403 | 69.7
24 | TEKKPATGETPSPPG | 34800 | 30200 | 31000 | 332 | 315 | 24200 | 146 | 410 | 373 | 1910 | 1700
25 | PSGTENKTAAGETPS | 43500 | 24400 | 39800 | 1110 | 1940 | 8400 | 1040 | 510 | 226 | 345 | 445

Row | Sequence | antibody binding signal [1] | antibody binding signal [2] | antibody binding signal [3] | antibody binding signal [4] | antibody binding signal [5] | antibody binding signal [6] | antibody binding signal [7] | antibody binding signal [8] | antibody binding signal [9] | antibody binding signal [10] | antibody binding signal [11]
26 | GTDKKPAAGETPSPS | 2490 | 1610 | 6000 | 12100 | 2650 | 3450 | 147 | 307 | 144 | 952 | 1630
27 | KDKKAATGGAPSQSG | 442 | 225 | 188 | 226 | 1610 | 312 | 242 | 94 | 103 | 89.9 | 98.9
28 | GKDNKTATGGTPSQS | 370 | 329 | 333 | 2280 | 905 | 815 | 335 | 125 | 131 | 171 | 154
29 | PPSGKENKPATGGAP | 7260 | 6680 | 8230 | 919 | 3260 | 11900 | 4970 | 3020 | 196 | 251 | 905
30 | GTEKKPAAGGAPSPP | 799 | 271 | 436 | 5360 | 892 | 1550 | 167 | 1120 | 1200 | 726 | 1620
31 | KDNKAAAGETPSQPG | 1750 | 821 | 32400 | 239 | 227 | 1480 | 358 | 1800 | 181 | 115 | 138
32 | STPPSGTEKKTAAGE | 33300 | 32800 | 29500 | 226 | 8980 | 4820 | 889 | 297 | 295 | 144 | 93.9
33 | PSGTDNKTATGETPS | 7840 | 15100 | 40400 | 255 | 264 | 6810 | 130 | 607 | 910 | 144 | 198
34 | DNKAATGGAPSQSGA | 572 | 396 | 2190 | 582 | 529 | 1900 | 353 | 178 | 264 | 276 | 143
35 | KTATGETPSQSGASS | 917 | 4470 | 6660 | 165 | 246 | 4880 | 261 | 300 | 243 | 253 | 163
36 | SGTDKKAAAGGTPSQ | 431 | 547 | 1570 | 13000 | 981 | 1850 | 213 | 172 | 1870 | 1140 | 196
37 | GKEKKPAAGETPSQP | 7880 | 408 | 22600 | 5640 | 6050 | 5810 | 86.5 | 135 | 97.3 | 81.4 | 317
38 | GKDNKPAAGEAPSQS | 1920 | 9300 | 29000 | 1590 | 1790 | 17200 | 228 | 1070 | 128 | 268 | 95.2
39 | TPPSGKENKPATGET | 32500 | 35600 | 17400 | 343 | 6450 | 15300 | 2020 | 1870 | 406 | 2530 | 2440
40 | GKDKKPATGETPSPP | 27200 | 4230 | 19800 | 3950 | 4520 | 19900 | 162 | 150 | 87.2 | 627 | 164
41 | GKDNKPATGETPSPP | 39700 | 22200 | 35300 | 3600 | 6520 | 27700 | 345 | 782 | 223 | 1840 | 546
42 | TDKKPATGGTPSQSG | 864 | 816 | 758 | 1720 | 921 | 477 | 339 | 542 | 897 | 249 | 153
43 | TDNKPATGGTPSPSG | 927 | 826 | 2710 | 263 | 453 | 317 | 183 | 610 | 364 | 368 | 145
44 | PSGKENKTAAGEAPS | 10500 | 3020 | 11700 | 12100 | 10400 | 12800 | 7240 | 3570 | 225 | 497 | 254
45 | ISTPPSGKDKKAATG | 18400 | 303 | 589 | 218 | 42700 | 450 | 123 | 324 | 107 | 95.4 | 112
46 | GTEKKPATGETPSQP | 33400 | 18900 | 41500 | 1120 | 1640 | 23000 | 261 | 1140 | 1740 | 1840 | 697
47 | SSTPPSGKENKAAAG | 34800 | 4260 | 9270 | 424 | 6120 | 2410 | 3120 | 989 | 145 | 126 | 385
48 | KENKPAAGGAPSQPG | 193 | 269 | 15000 | 703 | 452 | 2090 | 227 | 180 | 128 | 133 | 181
49 | SGTDNKPAAGEAPSQ | 6840 | 17400 | 41100 | 2500 | 230 | 15900 | 114 | 608 | 280 | 296 | 161
50 | SGTEKKPATGGTPSQ | 5260 | 633 | 4070 | 2250 | 2310 | 1660 | 308 | 1350 | 1150 | 321 | 941
